Results from PubChem BioAssay AID296 (DTP/NCI, 2004).
Inconclusive results are not listed. A number of entries come with more than one value. This list holds those alone. The source may hold further records. Values given together are repeats (runs, samples, wells, individuals or studies).

Test system: MX-1 breast xenograft, nude mice, tumor weight T/C
Test: NCI In Vivo Anticancer Drug Screen. Data for tumor model Human Mammary Carcinoma MX-1 Xenograft (intrarenal inoculation) in NU/NU Swiss (nude) mice
Conditions: endpoint: mean tumor weight change, higher = larger tumour
Procedure: The antitumor activity of compounds was measured in mice bearing transplantable tumors. Survival or tumor size were measured and the results are expressed as the measurement made in the treated group (T) divided by the measurement made in the vehicle treated control group (C). The tumor model used in this assay is Human Mammary Carcinoma MX-1 Xenograft (intrarenal inoculation) in NU/NU Swiss (nude) mice

[1] = dose: 0.13 mg/kg/injection, schedule: Q01DX010 (sc), vehicle: saline
[2] = dose: 0.25 mg/kg/injection, schedule: Q01DX010 (sc), vehicle: saline
[3] = dose: 12.5 mg/kg/injection, schedule: Q01DX010 (sc), vehicle: saline

## C1CN1c1nc(N2CC2)nc(N2CC2)n1
[1]
  T/C: -36 % of control and 9 % of control
[2]
  T/C: -65 % of control and -22 % of control

## OC(CCl)CN1CC[N+]2(CC1)CC[N+]1(CCN(CC(O)CCl)CC1)CC2 (configuration not stated)
dose: 32.0 mg/kg/injection, schedule: Q01DX010 (sc), vehicle: water
  T/C: 96 % of control and 160 % of control
dose: 128.0 mg/kg/injection, schedule: Q01DX010 (sc), vehicle: water
  T/C: 55 % of control, 94 % of control, 111 % of control
dose: 256.0 mg/kg/injection, schedule: Q01DX010 (sc), vehicle: water
  T/C: 51 % of control, 90 % of control, 154 % of control

## O=C(Nc1ccc(N=C=S)cc1Cl)c1cc(Cl)cc(Cl)c1O
dose: 200.0 mg/kg/injection, schedule: Q04DX003 (sc), vehicle: Klucel (hydroxypropylcellulose) (HPC)
  T/C: 68 % of control and 116 % of control

## ClCCCN1CCN(CCCl)CC1
dose: 3.75 mg/kg/injection, schedule: Q04DX003 (sc), vehicle: saline
  T/C: 50 % of control, 58 % of control, 83 % of control
dose: 15.0 mg/kg/injection, schedule: Q04DX003 (sc), vehicle: saline
  T/C: -61 % of control and 8 % of control

## OCCN1CCN(CCCN2c3ccccc3Sc3ccc(C(F)(F)F)cc32)CC1
dose: 120.0 mg/kg/injection, schedule: Q04DX003 (sc), vehicle: saline
  T/C: 34 % of control and 62 % of control
dose: 240.0 mg/kg/injection, schedule: Q04DX003 (sc), vehicle: saline
  T/C: 21 % of control and 50 % of control

## c1cc2n(n1)CCN2
dose: 100.0 mg/kg/injection, schedule: Q01DX010 (sc), vehicle: saline
  T/C: 18 % of control and 75 % of control
dose: 200.0 mg/kg/injection, schedule: Q01DX010 (sc), vehicle: saline
  T/C: 52 % of control and 86 % of control

## CC1(C)OCC(CO)(Nc2nc(N3CC3)nc(N3CC3)n2)CO1
dose: 1.25 mg/kg/injection, schedule: Q01DX010 (sc), vehicle: saline
  T/C: -68 % of control and 4 % of control

## Cc1c2ccncc2c(C)c2c1[nH]c1ccccc12
[3]
  T/C: 69 % of control and 221 % of control
dose: 25.0 mg/kg/injection, schedule: Q01DX010 (sc), vehicle: saline
  T/C: 52 % of control, 54 % of control, 96 % of control

## [N-]=[N+]=CC(=O)CCC(=O)C=[N+]=[N-]
dose: 1.5 mg/kg/injection, schedule: Q01DX010 (sc), vehicle: DMSO
  T/C: -100 % of control and -25 % of control

## CCCC(=O)O
dose: 400.0 mg/kg/injection, schedule: Q01DX010 (sc), vehicle: saline
  T/C: 81 % of control and 109 % of control

## O=P1(N(CCCl)CCCl)NCCCO1 (configuration not stated)
[3]
  T/C: -46 % of control and 8 % of control

## CC[C@]1(O)C[C@H]2CN(CCc3c([nH]c4ccccc34)[C@@](C(=O)OC)(c3cc4c(cc3OC)N(C=O)[C@H]3[C@@](O)(C(=O)OC)[C@H](OC(C)=O)[C@]5(CC)C=CCN6CC[C@]43[C@@H]65)C2)C1
[1]
  T/C: -10 % of control and 18 % of control
[2]
  T/C: -100 % of control and -74 % of control

## N[C@@H](Cc1ccc(N(CCCl)CCCl)cc1)C(=O)O
dose: 1.0 mg/kg/injection, schedule: Q01DX010 (ip), vehicle: saline
  T/C: 4 % of control and 41 % of control
dose: 1.0 mg/kg/injection, schedule: Q01DX010 (sc), vehicle: suspension in saline
  T/C: -60 % of control, 1 % of control, 29 % of control
dose: 1.5 mg/kg/injection, schedule: Q04DX003 (sc), vehicle: saline
  T/C: -100 % of control, 5 % of control, 38 % of control
dose: 2.0 mg/kg/injection, schedule: Q01DX010 (sc), vehicle: suspension in saline
  T/C: -100 % of control and 12 % of control
dose: 3.0 mg/kg/injection, schedule: Q04DX003 (sc), vehicle: saline
  T/C: -94 % of control, -88 % of control, 4 % of control
dose: 6.0 mg/kg/injection, schedule: Q04DX003 (sc), vehicle: saline
  T/C: -100 % of control, -79 % of control, -64 % of control

## COC1C(/C=C/C(C)=O)OC2OC(C)(C)OC21 (configuration not stated)
dose: 300.0 mg/kg/injection, schedule: Q04DX003 (sc), vehicle: suspension in saline
  T/C: 78 % of control and 154 % of control
